# Experimental data as given in the supplement of paper PMC8728848.
# The other results are listed elsewhere or left out.
# B1: Epa1-NP-mutant-E227A (Candida glabrata), Q6VBJ0 (protein)
# chain: MILNPALFLNKCVCIYTTLILLLLTNGGYATSSNDISLASKDPTTFPLGCSPDITTPKKGLSMELYSYDFRKKGSYPCWDAAYLDPNYPRTGYKSHRLLAKVDGVTGNINFYYHATKGCTPQLGHLPASYNYPKPLTMTNFTMLLYGYFRPKVTGFHTFTISADDLLFVNFGAGNAFDCCRRDSSADHFGNYQAYAIWGSKTAKDELTVHLDAGVYYPIRLFYNNRAYDGALSFTFKTESNENTVSDFSEYFFSLDDTEEGCPGLISYDSSCASVKTSKIIGIDYHTETPNENLVPITKTIYHLGIPCTGTTTTPLCGSGFYDPLANKCVTINTSSTSSVTKTTSHTTSKEVSFHSSISSQKTLIPKSIPSPYGPIKSQSIPTEMETSSEISSSEYAFSDVISTPSHSPYTKKHSSLNSSSYTSTVIHSLTSYSISQGIFSTSLSEQNITSKSSTDKFSTATSMSNNITQSSIIISQFSTNNENYTTTSMHTSSDKISTETLNNSISTTTSILFSNSSTILKNNTTIISSDKDTHYHPVNPTIVCSTNKTEIICASITQPSISNSNNHWSSSVLKFNSTTVRSTLPSSAGSNETSINVPFSSSTESNTSTSSTSTSNSKMVRSTLPSSAGSNETSISVPFSSSTESNTSTSSTSTSNSKMVRSTLPSSAGSNETSINVPFSSSTESNTSTSSTSTSNSKTVRSTPFSSAGIIMTSLSQRNNKSASSYASSNSKCYNTADSCRKVHSTPSYLLTSSYTSEGVDYDCSLVSTKLKINDTNCVNNKHTTKSCLKTSVTTTIPTLEIKTARKSSSNTIGLHSYPTSSPNKSISSAPIIGYISSFKTIKTASPSYQTSDLTTITTITSLNNPGSTAVENTHESNDKSRKTSSNDISSKHSVIKETKDAVESSNKSHQTNTLKCSSIIIASSSHNSYESLGGTTLTLTLSKVYSPQNNDTLPFLEISEVNPSRTVLPESSKMMQYLTSTEERNKTARNTIATNIVSISTFHFEGEGNAIRMGYTQLLLMLIGIIVMNIGT
# How the values were obtained:
# Experiment in all cases: glycan array binding signal (z-score within array); higher = stronger binding
# Conditions in all cases: glycan notation: IUPAC condensed, linker removed; mutation: E227A
# Fuc(a1-2)Gal = molecular target: Fuc(a1-2)Gal
# How it was run: (§1)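 The binding signal is a Z-score computed within each array. Data were drawn from 3228 arrays in the Consortium for Functional Glycomics database, restricted to those with a known protein sequence. Scores were averaged over arrays of the same protein sequence at different concentrations or buffers, and over linkers, and negative values can be taken as non-binding.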
# Fuc(a1-2)Gal(b1-3)GalNAc = molecular target: Fuc(a1-2)Gal(b1-3)GalNAc
# How it was run: as §1
# [1] = molecular target: Fuc(a1-2)Gal(b1-3)GalNAc(a1-3)[Fuc(a1-2)]Gal(b1-4)Glc
# How it was run: as §1
# [2] = molecular target: Fuc(a1-2)Gal(b1-3)GalNAc(a1-3)[Fuc(a1-2)]Gal(b1-4)GlcNAc
# How it was run: as §1
# [3] = molecular target: Fuc(a1-2)Gal(b1-3)GalNAc(b1-3)Gal
# How it was run: as §1
# [4] = molecular target: Fuc(a1-2)Gal(b1-3)GalNAc(b1-3)Gal(a1-4)Gal(b1-4)Glc
# How it was run: as §1
# [5] = molecular target: Fuc(a1-2)Gal(b1-3)GalNAc(b1-4)[Neu5Ac(a2-3)]Gal(b1-4)Glc
# How it was run: as §1
# Fuc(a1-2)Gal(b1-3)GlcNAc = molecular target: Fuc(a1-2)Gal(b1-3)GlcNAc
# How it was run: as §1
# [6] = molecular target: Fuc(a1-2)Gal(b1-3)GlcNAc(b1-2)Man(a1-3)[Fuc(a1-2)Gal(b1-3)GlcNAc(b1-2)Man(a1-6)]Man(b1-4)GlcNAc(b1-4)GlcNAc
# How it was run: as §1
# [7] = molecular target: Fuc(a1-2)Gal(b1-3)GlcNAc(b1-2)Man(a1-3)[Fuc(a1-2)Gal(b1-3)GlcNAc(b1-2)Man(a1-6)]Man(b1-4)GlcNAc(b1-4)[Fuc(a1-6)]GlcNAc
# How it was run: as §1
# [8] = molecular target: Fuc(a1-2)Gal(b1-3)GlcNAc(b1-3)Gal(b1-4)Glc
# How it was run: as §1
# [9] = molecular target: Fuc(a1-2)Gal(b1-3)GlcNAc(b1-3)GalNAc
# How it was run: as §1
# [10] = molecular target: Fuc(a1-2)Gal(b1-3)GlcNAc(b1-3)[Fuc(a1-2)Gal(b1-3)GlcNAc(b1-6)]GalNAc
# How it was run: as §1
# [11] = molecular target: Fuc(a1-2)Gal(b1-3)GlcNAc(b1-3)[Gal(b1-4)GlcNAc(b1-6)]Gal(b1-4)Glc
# How it was run: as §1
# [12] = molecular target: Fuc(a1-2)Gal(b1-3)GlcNAc(b1-3)[Neu5Ac(a2-6)Gal(b1-4)GlcNAc(b1-6)]Gal(b1-4)Glc
# How it was run: as §1
# [13] = molecular target: Fuc(a1-2)Gal(b1-3)GlcNAc6S
# How it was run: as §1
# [14] = molecular target: Fuc(a1-2)Gal(b1-3)[Fuc(a1-4)]GlcNAc
# How it was run: as §1
# [15] = molecular target: Fuc(a1-2)Gal(b1-3)[Fuc(a1-4)]GlcNAc(b1-2)Man(a1-3)[Fuc(a1-2)Gal(b1-3)[Fuc(a1-4)]GlcNAc(b1-2)Man(a1-3)]Man(b1-4)GlcNAc(b1-4)GlcNAc
# How it was run: as §1
# [16] = molecular target: Fuc(a1-2)Gal(b1-3)[Fuc(a1-4)]GlcNAc(b1-2)Man(a1-3)[Fuc(a1-2)Gal(b1-3)[Fuc(a1-4)]GlcNAc(b1-2)Man(a1-6)]Man(b1-4)GlcNAc(b1-4)[Fuc(a1-6)]GlcNAc(b1-4)[Fuc(a1-6)]GlcNAc
# How it was run: as §1
# [17] = molecular target: Fuc(a1-2)Gal(b1-3)[Fuc(a1-4)]GlcNAc(b1-3)[Fuc(a1-3)[Gal(b1-4)]GlcNAc(b1-6)]Gal(b1-4)Glc
# How it was run: as §1
# [18] = molecular target: Fuc(a1-2)Gal(b1-3)[Fuc(a1-4)]GlcNAc(b1-3)[Gal(b1-4)GlcNAc(b1-6)]Gal(b1-4)Glc
# How it was run: as §1
# [19] = molecular target: Fuc(a1-2)Gal(b1-4)Fuc(a1-3)]GlcNAc(b1-2)Man(a1-3)[Fuc(a1-2)Gal(b1-4)[Fuc(a1-3)]GlcNAc(b1-2)Man(a1-6)]Man(b1-4)GlcNAc(b1-4)GlcNAc
# How it was run: as §1
# Fuc(a1-2)Gal(b1-4)Glc = molecular target: Fuc(a1-2)Gal(b1-4)Glc
# How it was run: as §1
# Fuc(a1-2)Gal(b1-4)Glc6S = molecular target: Fuc(a1-2)Gal(b1-4)Glc6S
# How it was run: as §1
# Fuc(a1-2)Gal(b1-4)GlcNAc = molecular target: Fuc(a1-2)Gal(b1-4)GlcNAc
# How it was run: as §1
# [20] = molecular target: Fuc(a1-2)Gal(b1-4)GlcNAc(b1-2)Man
# How it was run: as §1
# [21] = molecular target: Fuc(a1-2)Gal(b1-4)GlcNAc(b1-2)Man(a1-3)[Fuc(a1-2)Gal(b1-4)GlcNAc(b1-2)Man(a1-6)]Man(b1-4)GlcNAc(b1-4)GlcNAc
# How it was run: as §1
# [22] = molecular target: Fuc(a1-2)Gal(b1-4)GlcNAc(b1-2)Man(a1-3)[Fuc(a1-2)Gal(b1-4)GlcNAc(b1-2)Man(a1-6)]Man(b1-4)GlcNAc(b1-4)[Fuc(a1-6)]GlcNAc
# How it was run: as §1
# [23] = molecular target: Fuc(a1-2)Gal(b1-4)GlcNAc(b1-2)[Fuc(a1-2)Gal(b1-4)GlcNAc(b1-4)]Man(a1-3)[Fuc(a1-2)Gal(b1-4)GlcNAc(b1-2)Man(a1-6)]Man(b1-4)GlcNAc(b1-4)GlcNAc
# How it was run: as §1
# [24] = molecular target: Fuc(a1-2)Gal(b1-4)GlcNAc(b1-3)Gal(b1-4)GlcNAc
# How it was run: as §1
binder,measurement,setting,value
B1,glycan array binding signal (z-score),Fuc(a1-2)Gal,-0.193
same,glycan array binding signal (z-score),Fuc(a1-2)Gal(b1-3)GalNAc,-0.197
same,glycan array binding signal (z-score),[1],-0.214
same,glycan array binding signal (z-score),[2],-0.199
same,glycan array binding signal (z-score),[3],-0.221
same,glycan array binding signal (z-score),[4],-0.198
same,glycan array binding signal (z-score),[5],-0.211
same,glycan array binding signal (z-score),Fuc(a1-2)Gal(b1-3)GlcNAc,-0.21
same,glycan array binding signal (z-score),[6],-0.184
same,glycan array binding signal (z-score),[7],-0.163
same,glycan array binding signal (z-score),[8],-0.204
same,glycan array binding signal (z-score),[9],-0.217
same,glycan array binding signal (z-score),[10],-0.15
same,glycan array binding signal (z-score),[11],-0.138
same,glycan array binding signal (z-score),[12],-0.203
same,glycan array binding signal (z-score),[13],-0.195
same,glycan array binding signal (z-score),[14],-0.226
same,glycan array binding signal (z-score),[15],-0.162
same,glycan array binding signal (z-score),[16],-0.174
same,glycan array binding signal (z-score),[17],-0.272
same,glycan array binding signal (z-score),[18],-0.17
same,glycan array binding signal (z-score),[19],-0.184
same,glycan array binding signal (z-score),Fuc(a1-2)Gal(b1-4)Glc,-0.184
same,glycan array binding signal (z-score),Fuc(a1-2)Gal(b1-4)Glc6S,-0.121
same,glycan array binding signal (z-score),Fuc(a1-2)Gal(b1-4)GlcNAc,-0.188
same,glycan array binding signal (z-score),[20],-0.182
same,glycan array binding signal (z-score),[21],-0.148
same,glycan array binding signal (z-score),[22],-0.171
same,glycan array binding signal (z-score),[23],-0.195
same,glycan array binding signal (z-score),[24],-0.23
